Measurements as given in the supplement of paper PMC12217912.
Some of the results follow. The full chains were built here from the parent and the listed change. Inactive controls read about 0.05.

B1: TEV protease; numbered along this chain (parent)
chain: MGESLFKGPRDYNPISSSICHLTNESDGHTTSLYGIGFGPFIITNKHLFRRNNGTLVVQSLHGVFKVKDTTTLQQHLVDGRDMIIIRMPKDFPPFPQKLKFREPQREERICLVTTNFQTKSMSSMVSDTSCTFPSGDGIFWKHWIQTKDGQCGSPLVSTRDGFIVGIHSASNFTNTNNYFTSVPKNFMELLTNQEAQQWVSGWRLNADSVLWGGHKVFMVKPEEPFQPVKEATQL

Variants of: B1
Test: raw area under fraction-flipped curve 0-4 h after induction (AUC4h, not background-subtracted), DNA-recorder readout of cleavage of the substrate (dimensionless); higher = more cleavage of the substrate by the protease variant
Conditions: temperature: 34 °C; time window: 0-4 h after rhamnose induction
Experimental: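 In vivo DNA recorder in E. coli TOP10(DE3) ΔrhaA at 34 °C. Each TEVp single-site mutant (parent TEVp 0) is paired with a single-site variant of the 7-mer TEVs (canonical ENLYFQ|S). The substrate sits between flexible linkers in a Bxb1-sfGFP-TEVs-SsrA fusion, so cleavage stabilises Bxb1 and speeds flipping of a recombination array, read by NGS. The value is the raw area under the fraction-flipped curve over 0-4 h after rhamnose induction (AUC4h), with ≥20 reads per time point. It is not background-subtracted; inactive controls average about 0.047.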
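Note: Bxb1 expression induced with 0.2% (w/v) L-rhamnose at OD600 near 0.5, cultures sampled hourly, flipped fraction per protease–substrate barcode pair counted by paired-end Illumina sequencing.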

Variant | area with substrate ENAYFQS | area with substrate ENDYFQS | area with substrate ENEYFQS | area with substrate ENFYFQS | area with substrate ENGYFQS | area with substrate ENHYFQS | area with substrate ENIYFQS | area with substrate ENKYFQS | area with substrate ENMYFQS | area with substrate ENNYFQS | area with substrate ENPYFQS | area with substrate ENQYFQS | area with substrate ENRYFQS | area with substrate ENSYFQS | area with substrate ENTYFQS | area with substrate ENVYFQS | area with substrate ENYYFQS | area with substrate ENCYFQS | area with substrate ENWYFQS
MGESLFKGPRDYSPISSSICHLTNESDGHTTSLYGIGFGPFIITNKHLFRRNNGTLVVQSLHGVFKVKDTTTLQQHLVDGRDMIIIRMPKDFPPFPQKLKFREPQREERICLVTTNFQTKSMSSMVSDTSCTFPSGDGIFWKHWIQTKDGQCGSPLVSTRDGFIVGIHSASNFTNTNNYFTSVPKNFMELLTNQEAQQWVSGWRLNADSVLWGGHKVFMVKPEEPFQPVKEATQL [N13S] | 0.0623 | 0.0654 | 0.077 | 0.0653 | 0.059 | 0.0391 | 0.0833 | 0.0535 | 0.0836 | 0.0601 | 0.0581 | 0.0592 | 0.0523 | 0.0581 | 0.0662 | 0.0697 | 0.0622 |  | 
MGESLFKGPRDYTPISSSICHLTNESDGHTTSLYGIGFGPFIITNKHLFRRNNGTLVVQSLHGVFKVKDTTTLQQHLVDGRDMIIIRMPKDFPPFPQKLKFREPQREERICLVTTNFQTKSMSSMVSDTSCTFPSGDGIFWKHWIQTKDGQCGSPLVSTRDGFIVGIHSASNFTNTNNYFTSVPKNFMELLTNQEAQQWVSGWRLNADSVLWGGHKVFMVKPEEPFQPVKEATQL [N13T] | 0.0583 | 0.051 | 0.0658 | 0.0717 | 0.0702 | 0.0581 |  | 0.063 | 0.08 | 0.051 | 0.0498 | 0.0633 | 0.0539 | 0.0677 | 0.0824 | 0.0595 | 0.0128 | 0.0781 | 
MGESLFKGPRDYVPISSSICHLTNESDGHTTSLYGIGFGPFIITNKHLFRRNNGTLVVQSLHGVFKVKDTTTLQQHLVDGRDMIIIRMPKDFPPFPQKLKFREPQREERICLVTTNFQTKSMSSMVSDTSCTFPSGDGIFWKHWIQTKDGQCGSPLVSTRDGFIVGIHSASNFTNTNNYFTSVPKNFMELLTNQEAQQWVSGWRLNADSVLWGGHKVFMVKPEEPFQPVKEATQL [N13V] | 0.0679 | 0.0619 | 0.0598 | 0.0599 | 0.0691 | 0.0594 | 0.1 | 0.0621 | 0.0685 | 0.0644 | 0.0498 | 0.0575 | 0.0541 | 0.063 | 0.0592 | 0.0857 |  | 0.0661 | 
MGESLFKGPRDYWPISSSICHLTNESDGHTTSLYGIGFGPFIITNKHLFRRNNGTLVVQSLHGVFKVKDTTTLQQHLVDGRDMIIIRMPKDFPPFPQKLKFREPQREERICLVTTNFQTKSMSSMVSDTSCTFPSGDGIFWKHWIQTKDGQCGSPLVSTRDGFIVGIHSASNFTNTNNYFTSVPKNFMELLTNQEAQQWVSGWRLNADSVLWGGHKVFMVKPEEPFQPVKEATQL [N13W] | 0.0639 | 0.0587 | 0.0521 | 0.0491 | 0.0595 | 0.0584 | 0.0846 |  | 0.0788 | 0.0573 |  | 0.0429 |  | 0.0648 | 0.079 | 0.0695 | 0.0524 | 0.0665 | 0.0523
MGESLFKGPRDYNIISSSICHLTNESDGHTTSLYGIGFGPFIITNKHLFRRNNGTLVVQSLHGVFKVKDTTTLQQHLVDGRDMIIIRMPKDFPPFPQKLKFREPQREERICLVTTNFQTKSMSSMVSDTSCTFPSGDGIFWKHWIQTKDGQCGSPLVSTRDGFIVGIHSASNFTNTNNYFTSVPKNFMELLTNQEAQQWVSGWRLNADSVLWGGHKVFMVKPEEPFQPVKEATQL [P14I] | 0.0575 |  | 0.0626 | 0.0659 | 0.0589 |  | 0.0754 | 0.0669 | 0.0493 | 0.0599 | 0.0586 | 0.0596 | 0.0548 | 0.057 | 0.0605 | 0.0658 |  | 0.0694 | 0.0594
MGESLFKGPRDYNPICSSICHLTNESDGHTTSLYGIGFGPFIITNKHLFRRNNGTLVVQSLHGVFKVKDTTTLQQHLVDGRDMIIIRMPKDFPPFPQKLKFREPQREERICLVTTNFQTKSMSSMVSDTSCTFPSGDGIFWKHWIQTKDGQCGSPLVSTRDGFIVGIHSASNFTNTNNYFTSVPKNFMELLTNQEAQQWVSGWRLNADSVLWGGHKVFMVKPEEPFQPVKEATQL [S16C] | 0.0434 | 0.0666 | 0.0609 | 0.0634 | 0.0563 | 0.0578 | 0.106 | 0.0693 | 0.0729 | 0.0693 | 0.0708 | 0.0661 | 0.0578 | 0.0588 | 0.0405 | 0.0807 | 0.0567 | 0.0735 | 0.0627
MGESLFKGPRDYNPIESSICHLTNESDGHTTSLYGIGFGPFIITNKHLFRRNNGTLVVQSLHGVFKVKDTTTLQQHLVDGRDMIIIRMPKDFPPFPQKLKFREPQREERICLVTTNFQTKSMSSMVSDTSCTFPSGDGIFWKHWIQTKDGQCGSPLVSTRDGFIVGIHSASNFTNTNNYFTSVPKNFMELLTNQEAQQWVSGWRLNADSVLWGGHKVFMVKPEEPFQPVKEATQL [S16E] | 0.0603 | 0.0626 | 0.0624 | 0.0612 | 0.075 | 0.0363 | 0.102 |  | 0.0834 | 0.0673 | 0.0474 | 0.0707 | 0.0627 | 0.0651 | 0.0383 | 0.0549 | 0.0577 | 0.0571 | 0.0643
MGESLFKGPRDYNPIGSSICHLTNESDGHTTSLYGIGFGPFIITNKHLFRRNNGTLVVQSLHGVFKVKDTTTLQQHLVDGRDMIIIRMPKDFPPFPQKLKFREPQREERICLVTTNFQTKSMSSMVSDTSCTFPSGDGIFWKHWIQTKDGQCGSPLVSTRDGFIVGIHSASNFTNTNNYFTSVPKNFMELLTNQEAQQWVSGWRLNADSVLWGGHKVFMVKPEEPFQPVKEATQL [S16G] | 0.0523 | 0.0516 | 0.086 |  |  |  |  |  |  | 0.0672 | 0.0837 | 0.0628 |  | 0.0272 |  | 0.0594 | 0.0644 | 0.0739 | 
